# Assay results: PubChem BioAssay AID1347071 (National Center for Advancing Translational Sciences (NCATS), 2019)
# The campaign covered roughly 410,000 compounds. About 260 (0.063%) were called active. Inconclusive results, whose numbers are uncertain, are shown with a selection of clear calls. The call rests on the fitted dose curve; in most records, active means well fitted activation curve with a large enough effect; inconclusive means small, poorly fitted or top-dose-only effect; inactive means no such curve, though single readings can be large or run the other way. Potencies of inconclusive entries are left out as doubtful fits.
# Assay: qHTS for compounds that reverse cellular toxicity of Amyloid beta (A-beta) peptide in yeast: Primary Screen; further: nearly all actives have a fitted effect of over 55% in size
# Conditions: yeast expressing A-beta42, growth rescue, OD600, 48 h; growth rescue: at 46.1 µM (top of the series), 0% DMSO, 100% iron-clioquinol control
# Source text: The A-beta peptide is produced by the processing of the amyloid precursor protein (APP) by two proteases, beta and gamma secretases. […] A-beta42 is regarded as the most amyloidogenic form due to its hydrophobicity; however, precisely how A-beta42 induces neurotoxicity is unclear. To understand further this biology and its potential therapeutic implications for human neurodegenerative disease, a quantitative high-throughput screen for compounds that reverse the cellular toxicity of the A-beta peptide was developed. A yeast based screen was used because it recapitulates the salient feature of protein mis-folding disorder accurately. This cell-based phenotypic screen provides a significant, unbiased advantage by letting the compounds and models inform us which proteins or pathways are most relevant. The ideal chemical candidates would therefore have activity in both our primary yeast and secondary neuronal toxicity assays, as well as in mouse models. They will be valuable tools for dissecting diverse protein homeostasis pathologies and could potentially become the focus for future pre-clinical development. For this luminescence assay, inhibition of A-beta rescues the toxic effect in the yeast cell, resulting in increase of signals and the desired phenotype of "Activator". This screen is run against the Molecular Libraries Small Molecule Repository (MLSMR) and the NCGC Sytravon Library Collection.
# NIH Chemical Genomics Center [NCGC]
# NIH Molecular Libraries Probe Centers Network [MLPCN]
# Assay Submitter (PI): Susan Lindquist, Whitehead Institute, Massachusetts Institute of Technology
# [1] Vassar R,et al (1999). Beta-secretase cleavage of Alzheimer's amyloid precursor protein by the transmembrane aspartic protease BACE. Science. 286: 735-741.
# [2] Yan R, et al (1999). Membrane-anchored aspartyl protease with Alzheimer's disease beta-secretase activity. Nature. 402: 533-536.
# Two and a half microliter / well of yeast growth medium were dispensed in a 1536 assay plate. Compounds were pinned using the Kalypsys robotic system followed by addition of 2.5 uL / well yeast solution. The assay plates were incubated at 30 C. After 48 hr, the absorbance signal at 600 nm was obtained using the PerkinElmer ViewLux plate reader to assess yeast growth. The data was normalized to the positive control of an equimolar mixture of ferric chloride (FeCl3) and clioquinol and to the negative control DMSO.
# Potency means the concentration at half of the fitted maximal effect; tags describe the fitted curve by direction and shape.
Compound,Potency,growth rescue
CCN(CC)S(=O)(=O)c1ccc(N2Cc3ccccc3C2=N)cc1,"inconclusive [activator, single point]",
CCC1Oc2ccccc2N(CC(=O)NCc2cc(OC)ccc2OC)C1=O (stereo unspecified),,inactive: -20.1%
Cc1nn(CCC(N)=S)c2nc(-c3cccs3)cc(C(F)(F)F)c12,"inconclusive [activator, single point]",
O=C(CSc1nccn1-c1cccc(Cl)c1)Nc1cccc2ccccc12,,inactive: 29.5%
O=C(Nc1ccccc1)Nc1cnccn1,"inconclusive [activator, partial curve, poor fit]",
CCC1Sc2ccc(S(=O)(=O)N3CCN(c4ccccc4)CC3)cc2NC1=O (stereo unspecified),"inconclusive [activator, partial curve, poor fit]",
Oc1cccc2ccc(/C=C/c3ccccc3Br)nc12,"inconclusive [activator, single point]",
Cc1cc(NCCO)c2cc(O)ccc2n1,,inactive: -16.3%
O=C(c1ccccc1)[C@H]1CC=CC[C@H]1C(=O)O,"inconclusive [activator, partial curve, poor fit]",
C(=NOCc1ccccc1)c1cccnc1,"inconclusive [activator, partial curve, poor fit]",
Cc1cc(=O)[nH]c(NNC(=O)c2ccc(Cl)cc2)n1,,inactive: -5.24%
Nc1ccc(Oc2cccc(Oc3ccc(N)cc3)c2)cc1,"inconclusive [activator, partial curve, poor fit]",
COc1ccc(NC(=O)CCCC(=O)c2ccccc2)cc1OC,,inactive: -0.712%
Cc1cc(C)n2c(SCC(=O)Nc3ncc(C(F)(F)F)cc3Cl)nnc2n1,,inactive: -1.06%
CCCCNC(=S)Nc1ccc(Oc2ccccc2)cc1,"inconclusive [activator, partial curve, poor fit]",
CC(C)C(=O)Nc1nc2c(s1)CC(C(C)(C)C)CC2 (stereo unspecified),"inconclusive [activator, partial curve]",
C=CCNC(=S)NC(=O)c1oc2ccccc2c1C,"inconclusive [activator, partial curve, poor fit]",
CC(C1CC1)N(Cc1ccccc1)C(=S)Nc1ccccc1Cl (stereo unspecified),"inconclusive [activator, partial curve, poor fit]",
O=C(Cn1c(=O)nc(-c2ccccc2)c2ccccc21)N1CCN(c2ccc(F)cc2)CC1,,inactive: -1.56%
S=C(NCc1ccccc1)N1CCN(c2cccc(Cl)c2)CC1,"inconclusive [activator, single point]",
COc1ccc(N(CC(=O)N2CCN(c3ccc(F)cc3)CC2)S(=O)(=O)c2c(C)noc2C)cc1,"inconclusive [activator, partial curve]",
O=S(=O)(Nc1ccccc1O)c1ccc(-c2ccccc2)cc1,"inconclusive [activator, single point]",
CCOc1ccc(CC(=O)N/N=C/c2cccnc2)cc1OCC,"inconclusive [activator, single point]",
CC(=O)N1c2ccc(S(=O)(=O)Nc3ccc(Cl)cc3C)cc2CC1C (stereo unspecified),"inconclusive [activator, partial curve, poor fit]",

Compound,Potency,growth rescue
Cn1cc([C@]2(O)C(=O)N(c3ccccc3)c3ccccc32)c2ccccc21,"inconclusive [activator, partial curve]",
O=C(CCc1c[nH]c2ccccc12)OCc1cccc([N+](=O)[O-])c1,active: 11.2 µM,
COc1ccccc1-c1sc2cc3c(cc2c1C#Cc1ccccn1)OCO3,,inactive: 7.71%
FC(F)(F)c1cccc(Cc2noc(CN3CCCCC3c3ccccn3)n2)c1 (stereo unspecified),"inconclusive [activator, single point]",
CCc1ccc(NC(=O)Cn2c(=O)n(CCC(=O)NCCc3ccc(Cl)cc3)c(=O)c3ccccc32)cc1,,inactive: -7.63%
Cc1ccc(-n2c(-c3ccc(Cl)cc3Cl)n[nH]c2=S)cc1,"inconclusive [activator, single point]",
Cc1c(-c2ccccc2)sc2nc[nH]c(=S)c12,"inconclusive [activator, partial curve, poor fit]",
Cc1ccc2[nH]c(=O)c3cc(C(=O)NCCCN4CCC(C)CC4)sc3c2c1,,inactive: -4.3%
CCn1nc(NC(=O)C(C)(C)C)c2cc3cccc(C)c3nc21,"inconclusive [activator, partial curve, poor fit]",
C=C(C)COc1ccc2c(CC)cc(=O)oc2c1C,,inactive: -2.59%
N/C(=N\OC(=O)CCCc1ccccc1)c1ccccc1Cl,"inconclusive [activator, partial curve, poor fit]",
COc1ccc(NC(=O)CN(C)C(=O)COc2ccccc2Cc2ccccc2)cc1,"inconclusive [activator, partial curve, poor fit]",
Cc1ccc(NC(=O)c2ccc3c(O)c(S(=O)(=O)c4ccccc4)c(=O)[nH]c3c2)cc1Cl,,inactive: -6.04%
O=C(CNC(=S)N(Cc1ccccc1)Cc1ccccc1F)NCc1ccccc1,"inconclusive [activator, partial curve, poor fit]",
O=S(=O)(/N=C(/Nc1ccc(F)cc1F)c1ccccc1)c1ccccc1,"inconclusive [activator, partial curve, poor fit]",
COc1cccc(NC(=S)N(Cc2ccccn2)Cc2ccccc2Cl)c1,"inconclusive [activator, partial curve, poor fit]",
CCOc1ccc(N(CC)S(=O)(=O)N2CCCC(C(=O)Nc3ccc(OC)c(Cl)c3)C2)cc1 (stereo unspecified),,inactive: -14.3%
CC(C)(C)NC(=S)NC(=O)C12CCC3CC(CC(C3)C1)C2,active: 6.31 µM,
O=C(O)c1cccc(S(=O)(=O)N2CCC(n3nnc4cc(C(F)(F)F)ccc43)CC2)c1,,inconclusive: -93.3% [activator]
N#C/C(=C\c1c(Cl)cccc1Cl)c1nc2ccccc2[nH]1,,inactive: -26.6%
Cc1cccc(Nc2nnc(-c3ccc(C)c(S(=O)(=O)N4CCN(C)CC4)c3)c3ccccc23)c1,,inactive: 2.25%
S=C(NCc1ccc(Cl)cc1)NCc1ccccn1,"inconclusive [activator, partial curve, poor fit]",
COc1ccccc1NS(=O)(=O)c1cc(NC(=O)C(C)C)ccc1N1CCCCC1,,inactive: 0.302%
Fc1ccccc1NC(=S)N1CCC(c2ccccc2)C1 (stereo unspecified),"inconclusive [activator, single point]",

Compound,Potency,growth rescue
Cc1cc(NS(=O)(=O)c2ccc(NS(=O)(=O)c3ccc(Br)cc3)cc2)no1,,inactive: 18.1%
Cc1c(Cl)cccc1NC(=O)C1CCN(c2nc3ccccc3[nH]2)CC1,,inactive: -7.6%
COc1ccccc1NC(=O)C1(c2ccccc2)CCCC1,"inconclusive [activator, partial curve, poor fit]",
CC(NC(=O)COC(=O)C1CCN(c2ccc(C(F)(F)F)cn2)CC1)c1ccc(F)cc1 (stereo unspecified),"inconclusive [activator, single point]",
O=C(C1COc2ccccc2O1)N1CCN(Cc2ccc(Br)cc2F)CC1 (stereo unspecified),"inconclusive [activator, partial curve, poor fit]",
COc1ccccc1CNC(=O)c1cccc2c1C(=O)N(Cc1cccnc1)C2,,inactive: -0.841%
CCC1(C)Cc2c(c(=O)n(-c3ccccc3)c3ncnc(N)c23)CO1 (stereo unspecified),,inactive: -3.09%
CC(C)NC(=S)N(C)C1(c2ccccc2Cl)CCCCC1=O (stereo unspecified),,inactive: 7.72%
O=S(=O)(NCC(c1ccco1)N1CCN(c2ccccc2)CC1)c1cc(F)ccc1F (stereo unspecified),"inconclusive [activator, partial curve]",
O=C(COC(=O)c1cc2c(s1)CCC2)Nc1ccc(F)cc1,"inconclusive [activator, partial curve]",
Cc1cccc(NC(=O)CSc2nc3n[nH]c(C)c3c(=N)n2-c2cccc(Cl)c2)c1,,inactive: -8.69%
S=c1[nH]nc(-c2ccc(Cl)cc2Cl)n1-c1ccccc1,"inconclusive [activator, single point]",
Cc1[nH]n(C(N)=S)c(=O)c1N=Nc1ccc(Cl)cc1Cl,"inconclusive [activator, partial curve, poor fit]",
S=C(Nc1ccc(Cl)cc1Cl)NC1CCN(Cc2ccccc2)CC1,"inconclusive [activator, partial curve, poor fit]",
COC1CCC2(C)C(=CCC3C4CC(O)CC4(C)CCC32)C1 (stereo unspecified),,inactive: 11.9%
Cc1cc(Br)cnc1NC(=S)Nc1ccc(F)cc1F,"inconclusive [activator, single point]",
Cc1ccc(-n2c(CCc3ccccc3)n[nH]c2=S)cc1C,"inconclusive [activator, single point]",
CC(C)c1cccc(-c2csc(C(O)c3ccccc3)n2)c1 (stereo unspecified),"inconclusive [activator, partial curve]",
CCN(c1ccccc1C)S(=O)(=O)c1nnc(NC(=O)c2ccccc2C)s1,,inactive: 6.2%
Cc1cc(C)c2cc(CN(CCO)C(=O)Nc3ccc(F)cc3)c(=O)[nH]c2c1,"inconclusive [activator, full curve]",
COc1cccc(NC(=S)NC(=O)c2cncc(Br)c2)c1,"inconclusive [activator, full curve, poor fit]",
CCN1/C(=C/C(=S)Nc2ccccc2)Sc2ccccc21,"inconclusive [activator, single point]",
CCCCNC(=O)Nc1nc2ccccc2s1,"inconclusive [activator, partial curve, poor fit]",
